Laboratory results taken from the RNAGym collection of RNA variant scans (doi:10.7554/elife.90254).
Read counts are not given, so values of variants with three or more changes are uncertain.

B1: LINE1-mini (parent)
chain: GGCAGAGCUCAACACAGCGUGGCAAAGUGGCUGUGGCUAGACUGCC

Variants of: B1
Assay: self-cleavage, relative activity (ratio to wild type); higher = more cleavage; in vitro, sequencing; the parent is a self-cleaving ribozyme

Q: Which self-cleavage does the source give for GGCAGAGCUCAACACAUCGUGGCAAAGUGGCUGGGGCUCGACUGCC here?
A: Its self-cleavage is 0.04.

Q: For GGCAGAGCUCAACACAGAGUGGAAAAGUGACUGUGGCUAAACUGCC, which self-cleavage is on record?
A: Its self-cleavage is 0.29.

Q: Which self-cleavage does the source give for GGCAGAGCUCAACACAGAGUGGCAAAGUGGAUGUAGCUAGACUCCC here?
A: Its self-cleavage is 0.02.

Q: For GGCAGAGCUCAACACAGAAUGGCAACGUGGCUGUGGUUAGACUUCC, which self-cleavage is on record?
A: The self-cleavage was 0.08.

Q: Which self-cleavage does the source give for GGCAGAGCUCAACACAGAGUGGCAAAGUGGCUGUGGCUUGACGGCG here?
A: The self-cleavage was 0.03.

Q: Which self-cleavage does the source give for GGCAGAGCUCAACACAGAGUGGGAAAGUGGCUGUGGCUAGUCUGCC here?
A: The self-cleavage was 0.07.

Q: For GGCAGAGCUCAACACAGAGUGGCCAAGUGGCUGUGACUAGACUGCC, which self-cleavage is on record?
A: The self-cleavage was 0.06.

Q: Which self-cleavage does the source give for GGCAGAGCUCAACACAGAGUGGCGCAGUGGCUGUGGCUAGAUUGCC here?
A: Its self-cleavage is 0.04.

Q: Which self-cleavage does the source give for GGCAGAGCUCAACACAGAGUGGCAAAGUGGGUGUGGCUAGACUACC here?
A: The self-cleavage was 0.02.

Q: For GGCAGAGCUCAACACAUCGUGGCAAAGCGGCUGUGGCUAGUCUGCC, which self-cleavage is on record?
A: Its self-cleavage is 0.22.

Q: For GGCAGAGCUCAACACAGAGUGGCAUAGUGGCUGUGGCUAGACUUCC, which self-cleavage is on record?
A: The self-cleavage was 0.03.

Q: Which self-cleavage does the source give for GGCAGAGCUCAACACAGAGUGGCACAGUGGCUGUGGCUAGAAUGCC here?
A: The self-cleavage was 0.07.

Q: With GGCAGAGCUCAACACAUCGUGGCAAAGCGGCUGAGGCUAGACUGCC as the variant, how does the self-cleavage read?
A: Its self-cleavage is 0.05.

Q: For GGCAGAGCUCAACACAUCGUGGCAAAGCGGCUGAGGCUAGACUGUC, which self-cleavage is on record?
A: Its self-cleavage is 0.03.

Q: For GGCAGAGCUCAACACAUCGUGGCAAAGUGGCUGUGGCCAGAAUGCC, which self-cleavage is on record?
A: The self-cleavage was 0.14.

Q: With GGCAGAGCUCAACACAGAGUGGCAAAGUGGCUGUGGCUAGUCUGGC as the variant, how does the self-cleavage read?
A: The self-cleavage was 0.03.

Q: Which self-cleavage does the source give for GGCAGAGCUCAACACAGAGUGGUAAGUUGGCUGUGGCUAGGCUGCC here?
A: The self-cleavage was 0.14.

Q: Which self-cleavage does the source give for GGCAGAGCUCAACACAGAGUGGAAAAGUGGAUGUGACUAGACUGUC here?
A: Its self-cleavage is 0.06.

Q: For GGCAGAGCUCAACACAGAGUGGGAAACUGUCUGUGGCUAGACUGCC, which self-cleavage is on record?
A: Its self-cleavage is 0.95.

Q: For GGCAGAGCUCAACACAGAGUACAAAAACGGCUGUGGCUAGACUGCC, which self-cleavage is on record?
A: The self-cleavage was 0.25.

Q: For GGCAGAGCUCAACACAUCGAGGCAAAGUGGGUUUGGCUAGACUGCC, which self-cleavage is on record?
A: The self-cleavage was 0.

Q: Which self-cleavage does the source give for GGCAGAGCUCAACACAGACUGGCAAAGUGGCUGGGGCUAGACUGCC here?
A: Its self-cleavage is 0.1.

Q: With GGCAGAGCUCAACACAGAAUGGAAAAGUGGCUGUGGCUAGACUGCC as the variant, how does the self-cleavage read?
A: Its self-cleavage is 1.26.

Q: For GGCAGAGCUCAACACAGAGUGGCAAAGUGGAUGCGGCUACACUGCC, which self-cleavage is on record?
A: The self-cleavage was 0.01.

Q: For GGCAGAGCUCAACACAGAGUGGGAAAGUGGCUGUGACUAGACUGCC, which self-cleavage is on record?
A: Its self-cleavage is 0.24.

Q: With GGCAGAGCUCAACACAUCGUGGCAAAGUGGCUGUGGCUACACUGCU as the variant, how does the self-cleavage read?
A: The self-cleavage was 0.08.

Q: Which self-cleavage does the source give for GGCAGAGCUCAACACAGAGUGGCAACGUGGCUGUGGAGAGCAUCCC here?
A: The self-cleavage was 0.02.

Q: Which self-cleavage does the source give for GGCAGAGCUCAACACAGAGUGGCCAAGUGGUUGUGGCUAGACUGCC here?
A: The self-cleavage was 0.04.

Q: For GGCAGAGCUCAACACAGACUGGCAAAGUGGCUGUGGCCAGACUGCC, which self-cleavage is on record?
A: The self-cleavage was 1.49.

Q: For GGCAGAGCUCAACACAGAGUGGCAAUGUGGCUGUGGCUAGACUGCG, which self-cleavage is on record?
A: The self-cleavage was 0.15.

Q: For GGCAGAGCUCAACACAGAGUGUCAAAGUGGGUGUGACUAGACUGCC, which self-cleavage is on record?
A: The self-cleavage was 0.09.

Q: Which self-cleavage does the source give for GGCAGAGCUCAACACAGAGUGGCAAAGUGGCUGUGGAUAGAAAGCC here?
A: Its self-cleavage is 0.02.

Q: Which self-cleavage does the source give for GGCAGAGCUCAACACAGAGUGGCAACGUGCCUGUGGCUAGACUGCC here?
A: The self-cleavage was 0.65.

Q: Which self-cleavage does the source give for GGCAGAGCUCAACACAGAGUGGCCAAGUGGCUGUGGCUAGACUGGC here?
A: The self-cleavage was 0.02.

Q: Which self-cleavage does the source give for GGCAGAGCUCAACACAUCGUGGCAAAGUGGCUGUGGCAAGACUACC here?
A: Its self-cleavage is 0.08.

Q: With GGCAGAGCUCAACACAUCGAGGCAAACUGGCUGUGGCUAGACUGCC as the variant, how does the self-cleavage read?
A: The self-cleavage was 0.24.

Q: For GGCAGAGCUCAACACAGAGUGGCGAAGUGGCUGUGGCUAGACUGUC, which self-cleavage is on record?
A: Its self-cleavage is 0.24.

Q: With GGCAGAGCUCAACACAGAGUGUCAAAGUGACUGUGGCUACACUGUC as the variant, how does the self-cleavage read?
A: The self-cleavage was 0.03.

Q: For GGCAGAGCUCAACACAGAGUGGCAGAGGGGCUGUGGCAAGACUGCC, which self-cleavage is on record?
A: Its self-cleavage is 0.06.

Q: Which self-cleavage does the source give for GGCAGAGCUCAACACAGAGUUGCAAAGUGGCUGUGGCUAGACUGCA here?
A: Its self-cleavage is 0.13.

Q: For GGCAGAGCUCAACACAGAGUGGCAUAGUGGCUGUGGCGAGACUUCC, which self-cleavage is on record?
A: The self-cleavage was 0.03.

Q: For GGCAGAGCUCAACACAUCGUGGCAAAGUGGCUGUGGCUAGACAGCU, which self-cleavage is on record?
A: Its self-cleavage is 0.03.

Q: For GGCAGAGCUCAACACAGAGUGGCAUAGUGGCUGUGGCUAGAUUGCC, which self-cleavage is on record?
A: The self-cleavage was 0.02.

Q: For GGCAGAGCUCAACACAGAGUGGCAAAGUGGUUGUGGAUAGACUGCC, which self-cleavage is on record?
A: Its self-cleavage is 0.02.

Q: With GGCAGAGCUCAACACAGAGUGGCGAAGUGGCUGUGGCCAGACUGCC as the variant, how does the self-cleavage read?
A: The self-cleavage was 0.13.

Q: For GGCAGAGCUCAACACAGAGUGGCUAACUGGCUGUUGCUAGACUGCC, which self-cleavage is on record?
A: Its self-cleavage is 0.02.

Q: Which self-cleavage does the source give for GGCAGAGCUCAACACAGAGUGACAAAGUGGCUGUAGCUAGACUGCC here?
A: The self-cleavage was 0.05.

Q: Which self-cleavage does the source give for GGCAGAGCUCAACACAUCGCGGCUAAGUGGCUGUGGCUAGACCGCC here?
A: The self-cleavage was 0.04.

Q: For GGCAGAGCUCAACACAUCGAGGUAAAGUGUCUGUGCCUAGACUGCC, which self-cleavage is on record?
A: The self-cleavage was 0.07.

Q: Which self-cleavage does the source give for GGCAGAGCUCAACACAGAGUGGGAAAGUGGCGGUUGCAAGACUGCC here?
A: The self-cleavage was 0.18.

Q: For GGCAGAGCUCAACACAUCGCGUCAAGGUGGCUGUGGCUAGACUGCC, which self-cleavage is on record?
A: Its self-cleavage is 0.64.

Q: For GGCAGAGCUCAACACAGAGUGGAAAAGUGGCUGUGGCUAGACUCUC, which self-cleavage is on record?
A: The self-cleavage was 0.08.

Q: For GGCAGAGCUCAACACAGAGUGGCAACGCGGGUGUGGCUAGACUGCU, which self-cleavage is on record?
A: The self-cleavage was 0.01.

Q: For GGCAGAGCUCAACACAGAGUUGCAAAGUGGCUGUGGGCAGACUGCC, which self-cleavage is on record?
A: Its self-cleavage is 0.04.

Q: With GGCAGAGCUCAACACAUCGAUGCAACAUGGCUGUGGCUAGACUGCC as the variant, how does the self-cleavage read?
A: The self-cleavage was 0.28.

Q: With GGCAGAGCUCAACACAGAGUUGCAAAGUGGCUGUGGAUAGACUGCC as the variant, how does the self-cleavage read?
A: Its self-cleavage is 0.09.
